# Some of the results follow.
# Key:
# Assay in all cases: glycan array binding signal (z-score within array); higher = stronger binding
# Conditions in all cases: glycan notation: IUPAC condensed, linker removed
# [1] = biological target: Gal(b1-3)GlcNAc(b1-6)GalNAc
# Method in brief: (§1)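 Negative Z-scores can be read as non-binding. The Z-score is calculated within each array and then averaged across arrays of one protein sequence at different concentrations or buffers and across linkers. Arrays, 3228 in all, were curated from the Consortium for Functional Glycomics database and kept only where the protein sequence was available.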
# [2] = biological target: Gal(b1-3)GlcNAc(b1-6)[Gal(b1-3)]GalNAc
# Method in brief: as §1
# [3] = biological target: Gal(b1-3)GlcNAc6S
# Method in brief: as §1
# [4] = biological target: Gal(b1-3)[Fuc(a1-4)]GlcNAc
# Method in brief: as §1
# [5] = biological target: Gal(b1-3)[Fuc(a1-4)]GlcNAc(b1-2)Man
# Method in brief: as §1
# [6] = biological target: Gal(b1-3)[Fuc(a1-4)]GlcNAc(b1-2)Man(a1-3)[Gal(b1-3)[Fuc(a1-4)]GlcNAc(b1-2)Man(a1-6)]Man(b1-4)GlcNAc(b1-4)[Fuc(a1-6)]GlcNAc
# Method in brief: as §1
# [7] = biological target: Gal(b1-3)[Fuc(a1-4)]GlcNAc(b1-3)Gal(b1-3)[Fuc(a1-4)]GlcNAc
# Method in brief: as §1
# [8] = biological target: Gal(b1-3)[Fuc(a1-4)]GlcNAc(b1-3)Gal(b1-4)[Fuc(a1-3)]GlcNAc
# Method in brief: as §1
# [9] = biological target: Gal(b1-3)[Fuc(a1-4)]GlcNAc(b1-6)GalNAc
# Method in brief: as §1
# [10] = biological target: Gal(b1-3)[GlcNAc(b1-6)]GalNAc
# Method in brief: as §1
# [11] = biological target: Gal(b1-3)[Neu5Ac(a2-6)]GalNAc
# Method in brief: as §1
# [12] = biological target: Gal(b1-3)[Neu5Ac(a2-6)]GlcNAc(b1-4)Gal(b1-4)Glc
# Method in brief: as §1
# [13] = biological target: Gal(b1-3)[Neu5Ac(b2-6)]GalNAc
# Method in brief: as §1
# [14] = biological target: Gal(b1-4)Gal
# Method in brief: as §1
# [15] = biological target: Gal(b1-4)GalNAc(a1-3)[Fuc(a1-2)]Gal(b1-4)GlcNAc
# Method in brief: as §1
# [16] = biological target: Gal(b1-4)GalNAc(b1-3)[Fuc(a1-2)]Gal(b1-4)GlcNAc
# Method in brief: as §1
# [17] = biological target: Gal(b1-4)Glc
# Method in brief: as §1
# [18] = biological target: Gal(b1-4)Glc6S
# Method in brief: as §1
# [19] = biological target: Gal(b1-4)GlcNAc
# Method in brief: as §1
# [20] = biological target: Gal(b1-4)GlcNAc(a1-6)Gal(b1-4)GlcNAc
# Method in brief: as §1
# [21] = biological target: Gal(b1-4)GlcNAc(b1-2)Man
# Method in brief: as §1
# [22] = biological target: Gal(b1-4)GlcNAc(b1-2)Man(a1-3)Man(b1-4)GlcNAc(b1-4)GlcNAc
# Method in brief: as §1
# [23] = biological target: Gal(b1-4)GlcNAc(b1-2)Man(a1-3)[Gal(b1-4)GlcNAc(b1-2)Man(a1-6)]Man(b1-4)GlcNAc(b1-4)GlcNAc
# Method in brief: as §1
# [24] = biological target: Gal(b1-4)GlcNAc(b1-2)Man(a1-3)[Gal(b1-4)GlcNAc(b1-2)Man(a1-6)]Man(b1-4)GlcNAc(b1-4)[Fuc(a1-6)]GlcNAc
# Method in brief: as §1
# [25] = biological target: Gal(b1-4)GlcNAc(b1-2)Man(a1-3)[Gal(b1-4)GlcNAc(b1-2)Man(a1-6)][Gal(b1-4)GlcNAc(b1-4)]Man(b1-4)GlcNAc(b1-4)[Fuc(a1-6)]GlcNAc
# Method in brief: as §1
# [26] = biological target: Gal(b1-4)GlcNAc(b1-2)Man(a1-3)[Gal(b1-4)GlcNAc(b1-2)Man(a1-6)][GlcNAc(b1-4)]Man(b1-4)GlcNAc(b1-4)[Fuc(a1-6)]GlcNAc
# Method in brief: as §1
# [27] = biological target: Gal(b1-4)GlcNAc(b1-2)Man(a1-3)[GlcNAc(b1-2)Man(a1-6)]Man(b1-4)GlcNAc(b1-4)GlcNAc
# Method in brief: as §1
# [28] = biological target: Gal(b1-4)GlcNAc(b1-2)Man(a1-3)[GlcNAc(b1-4)][Gal(b1-4)GlcNAc(b1-2)Man(a1-6)]Man(b1-4)GlcNAc(b1-4)GlcNAc
# Method in brief: as §1
# [29] = biological target: Gal(b1-4)GlcNAc(b1-2)Man(a1-3)[Man(a1-6)]Man(b1-4)GlcNAc(b1-4)GlcNAc
# Method in brief: as §1
# [30] = biological target: Gal(b1-4)GlcNAc(b1-2)Man(a1-6)Man(b1-4)GlcNAc(b1-4)GlcNAc
# Method in brief: as §1
# [31] = biological target: Gal(b1-4)GlcNAc(b1-2)Man(a1-6)[GlcNAc(b1-2)Man(a1-3)]Man(b1-4)GlcNAc(b1-4)GlcNAc
# Method in brief: as §1
# [32] = biological target: Gal(b1-4)GlcNAc(b1-2)Man(a1-6)[Man(a1-3)]Man(b1-4)GlcNAc(b1-4)GlcNAc
# Method in brief: as §1
# [33] = biological target: Gal(b1-4)GlcNAc(b1-2)[Gal(b1-4)GlcNAc(b1-4)]Man(a1-3)[Gal(b1-4)GlcNAc(b1-2)Man(a1-6)]Man(b1-4)GlcNAc(b1-4)GlcNAc
# Method in brief: as §1
# [34] = biological target: Gal(b1-4)GlcNAc(b1-2)[Gal(b1-4)GlcNAc(b1-4)]Man(a1-3)[Gal(b1-4)GlcNAc(b1-2)[Gal(b1-4)GlcNAc(b1-6)]Man(a1-6)]Man(b1-4)GlcNAc(b1-4)GlcNAc
# Method in brief: as §1
# [35] = biological target: Gal(b1-4)GlcNAc(b1-2)[Gal(b1-4)GlcNAc(b1-4)]Man(a1-3)[GlcNAc(b1-4)][Gal(b1-4)GlcNAc(b1-2)Man(a1-6)]Man(b1-4)GlcNAc(b1-4)GlcNAc
# Method in brief: as §1
# [36] = biological target: Gal(b1-4)GlcNAc(b1-2)[Gal(b1-4)GlcNAc(b1-4)]Man(a1-3)[GlcNAc(b1-4)][Gal(b1-4)GlcNAc(b1-2)[Gal(b1-4)GlcNAc(b1-6)]Man(a1-6)]Man(b1-4)GlcNAc(b1-4)GlcNAc
# Method in brief: as §1
# [37] = biological target: Gal(b1-4)GlcNAc(b1-2)[Gal(b1-4)GlcNAc(b1-6)]Man(a1-6)[Gal(b1-4)GlcNAc(b1-2)Man(a1-3)]Man(b1-4)GlcNAc(b1-4)GlcNAc
# Method in brief: as §1
binder,measurement,setting,value
"Epa6 (Candida glabrata), Q6DTM7_CANGB (protein) MGSSHHHHHHSSGLVPRGSHMKDDYSSSLSNNNLGWTDPTEFPLGCSPNVTTPKNGLSMELYSYDYLKSGSNPCWDAAYLDPNYPRTGYKSHRLLAKVENVAGNINFYYHAPMGCTSLFDTLPQAYNYRTPLTMTNFTMLLYGYFKPKVTGYHTFTISADDLLFVNFGAGNAFDCCKRESSADDFGNYQAYAVWGSQTAKDDLTVHLDAGLYYPIRIFFNNRDNDGALSLTLKTESDPNPVIDFSDYFYSFDDTKDGCPGLVSYDTS",glycan array binding signal (z-score),[1],-0.297
same,glycan array binding signal (z-score),[2],0.455
same,glycan array binding signal (z-score),[3],-0.208
same,glycan array binding signal (z-score),[4],-0.298
same,glycan array binding signal (z-score),[5],-0.112
same,glycan array binding signal (z-score),[6],-0.266
same,glycan array binding signal (z-score),[7],-0.27
same,glycan array binding signal (z-score),[8],-0.336
same,glycan array binding signal (z-score),[9],-0.2
same,glycan array binding signal (z-score),[10],0.49
same,glycan array binding signal (z-score),[11],0.362
same,glycan array binding signal (z-score),[12],-0.241
same,glycan array binding signal (z-score),[13],0.06
same,glycan array binding signal (z-score),[14],-0.293
same,glycan array binding signal (z-score),[15],-0.251
same,glycan array binding signal (z-score),[16],-0.245
same,glycan array binding signal (z-score),[17],-0.274
same,glycan array binding signal (z-score),[18],-0.164
same,glycan array binding signal (z-score),[19],-0.209
same,glycan array binding signal (z-score),[20],0.348
same,glycan array binding signal (z-score),[21],-0.283
same,glycan array binding signal (z-score),[22],-0.298
same,glycan array binding signal (z-score),[23],-0.206
same,glycan array binding signal (z-score),[24],-0.184
same,glycan array binding signal (z-score),[25],-0.313
same,glycan array binding signal (z-score),[26],-0.244
same,glycan array binding signal (z-score),[27],-0.23
same,glycan array binding signal (z-score),[28],-0.277
same,glycan array binding signal (z-score),[29],-0.239
same,glycan array binding signal (z-score),[30],-0.258
same,glycan array binding signal (z-score),[31],-0.285
same,glycan array binding signal (z-score),[32],-0.292
same,glycan array binding signal (z-score),[33],-0.166
same,glycan array binding signal (z-score),[34],-0.094
same,glycan array binding signal (z-score),[35],-0.227
same,glycan array binding signal (z-score),[36],-0.145
same,glycan array binding signal (z-score),[37],-0.198
